# Reference: paper PMC4336329 (PLoS ONE, 2015)
# About 2,200 (0.71%) of roughly 310,000 compounds showed an effect of 50% or more. Effects have a minus sign here. This is one part of the list.
# Target: human ether-à-go-go-related gene (hERG) potassium channel (human, UniProt Q12809)
# Assay: primary screen, population patch clamp on CHO cells stably expressing hERG
# human ether-à-go-go-related gene (hERG) potassium channel, sequence (Q12809 whole entry, looked up): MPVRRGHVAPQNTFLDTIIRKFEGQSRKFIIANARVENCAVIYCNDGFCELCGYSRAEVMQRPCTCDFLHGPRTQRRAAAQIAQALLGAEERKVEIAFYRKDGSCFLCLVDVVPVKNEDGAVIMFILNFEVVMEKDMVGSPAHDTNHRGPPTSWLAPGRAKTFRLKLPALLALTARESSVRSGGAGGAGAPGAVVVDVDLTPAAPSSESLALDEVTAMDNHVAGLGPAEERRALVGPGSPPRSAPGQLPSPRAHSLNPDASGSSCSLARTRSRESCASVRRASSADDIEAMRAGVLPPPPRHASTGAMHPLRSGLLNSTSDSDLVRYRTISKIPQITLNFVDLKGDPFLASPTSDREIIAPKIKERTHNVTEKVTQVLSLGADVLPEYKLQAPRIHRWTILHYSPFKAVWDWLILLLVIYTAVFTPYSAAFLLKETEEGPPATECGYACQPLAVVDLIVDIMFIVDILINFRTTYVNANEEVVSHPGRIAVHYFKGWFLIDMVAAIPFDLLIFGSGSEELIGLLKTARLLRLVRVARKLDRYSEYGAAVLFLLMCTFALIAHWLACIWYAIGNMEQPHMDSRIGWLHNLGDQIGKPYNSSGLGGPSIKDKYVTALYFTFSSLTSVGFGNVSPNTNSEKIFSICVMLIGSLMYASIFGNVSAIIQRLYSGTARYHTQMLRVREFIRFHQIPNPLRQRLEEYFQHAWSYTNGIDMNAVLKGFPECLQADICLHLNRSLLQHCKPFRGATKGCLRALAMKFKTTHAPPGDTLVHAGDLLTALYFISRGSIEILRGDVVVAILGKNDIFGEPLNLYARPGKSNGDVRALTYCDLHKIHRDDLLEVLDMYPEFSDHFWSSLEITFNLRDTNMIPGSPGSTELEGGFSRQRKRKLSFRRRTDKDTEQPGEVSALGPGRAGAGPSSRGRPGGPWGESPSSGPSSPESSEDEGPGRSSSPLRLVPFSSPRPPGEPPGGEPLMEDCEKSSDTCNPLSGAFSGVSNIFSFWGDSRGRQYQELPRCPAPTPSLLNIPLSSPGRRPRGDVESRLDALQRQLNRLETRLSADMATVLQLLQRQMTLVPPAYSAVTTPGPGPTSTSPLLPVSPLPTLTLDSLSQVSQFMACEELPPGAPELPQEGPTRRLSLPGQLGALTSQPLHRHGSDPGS
row,SMILES,"hERG current change (%, negative = inhibition) at 1uM [%]"
1,O=[N+]([O-])c1cc(S(=O)(=O)[O-])cc([N+](=O)[O-])c1NN(c1ccccc1)c1ccccc1.[K+],13.9
2,COc1ccc(C(CNC(=O)c2ccco2)N2CCOCC2)cc1 (stereo not drawn),11.8
3,O=C(Nc1ccc(NC(=O)c2cccs2)cn1)c1ccco1,10.7
4,NC(=O)c1ccsc1NC(=O)CSc1nnc(Nc2ccccc2)s1,15.7
5,Cc1c(NC(=O)C(C)OC(=O)[C@@H](NC(=O)c2ccccc2)C(C)C)c(=O)n(-c2ccccc2)n1C (stereo partly drawn),-0.725
6,CCN(CC)CCC(C)OC(c1ccccc1)c1ccccc1.O=C(O)CC(O)(CC(=O)O)C(=O)O (stereo not drawn),-3.33
7,COCc1cc(C)nc2sc(C(=O)OC(C)C)c(N)c12,-1.63
8,CCCOc1ccc(-c2cc(C(=O)NCC3CCCO3)c3ccccc3n2)cc1 (stereo not drawn),10.8
9,CN(Cc1ccccc1)C(=O)Cn1c(=O)c2cccn2c2cccnc21,-1.36
10,CC(C)(C)OC(=O)CNC(=O)c1[nH]cnc1C(=O)NC(c1ccccc1)c1ccccc1,0.772
11,CS(=O)(=O)c1ccc(C(=O)NC(Cc2ccccc2)c2ccccc2)cc1 (stereo not drawn),10.7
12,CCn1c(O)c(C=Nc2ccccc2)sc1=S,-1.59
13,CN(Cc1ccccc1)C(=O)c1nc2ccccn2c1CNCCn1cccn1,-5.72
14,CC1CN(C(=O)c2ccc(Oc3ccccc3)cc2)CC(C)O1 (stereo not drawn),4.57
15,COc1ccccc1NC(=O)C(=O)NCc1ccncc1,4.41
16,COc1ccc(C(=O)Nn2cnnc2)c(OC)c1,6.2
17,COc1ccc(C2=C(C=C(C#N)C#N)C(c3ccccc3C)c3ccccc3O2)cc1OC (stereo not drawn),3.34
18,O=C(N/C(=C/c1cccs1)C(=O)N1CCOCC1)c1ccccc1,15.6
19,O=C(Nc1ccccc1C(=O)NCc1cccnc1)c1ccccc1F,20
20,NC12CN3CN(CN(C3)C1)C2.O=C(O)c1cccnc1,12.5
21,COC(=O)[C@H](Cc1ccccc1)NC(=O)C1CCN(C(=O)[C@H](C)NS(=O)(=O)c2ccc(C)cc2)CC1,3.05
22,COc1ccc(-c2cc(C(=O)Nc3ccc(OC)cc3OC)no2)cc1,13.5

row,SMILES,"hERG current change (%, negative = inhibition) at 1uM [%]"
1,CN(C)CCC(=O)C(Cc1ccccc1)c1ccccc1.Cl (stereo not drawn),13.9
2,CC(=O)Cc1nnn(-c2cc(C)on2)n1,19.5
3,COc1cccc(NC(=O)CCC2CCN(C(=O)c3cncs3)CC2)c1,6.21
4,Cn1c(O)c(C=NCCOc2ccc(Cl)cc2)c(=O)n(C)c1=O,1.91
5,Cc1ccc(S(=O)(=O)Nc2ccc(NC(=O)CN3CCCCC3)cc2)cc1,7.4
6,CN(Cc1ccccc1)C(=O)COc1cc(=O)n(C)c2ccccc12,3.2
7,Cc1ccc[n+](CC(=O)Nc2cccc([N+](=O)[O-])c2)c1.[Cl-],15.8
8,O=C(Cn1cnc([N+](=O)[O-])n1)N/N=C/c1ccc(O)cc1O,11.7
9,Cc1ccc(C)c(NC(=O)c2ccc[n+](Cc3ccc([N+](=O)[O-])cc3)c2)c1.[Br-],7.31
10,Cc1ccc(CNc2ccc3nnc(-c4ccccc4)n3n2)cc1,9.06
11,CCOc1ccccc1CN1CCN(Cc2ccc(C)o2)CC1CCO (stereo not drawn),-9.63
12,COc1ccc(-n2ccnc2CN2CCCC(CO)(Cc3cccc(OC)c3)C2)cc1 (stereo not drawn),0.509
13,COC(=O)C1(C)CN(S(=O)(=O)c2ccc(C)cc2)c2cc(OC)ccc2C1=O (stereo not drawn),6.72
14,Cc1n[nH]c(C)c1S(=O)(=O)N1CCN(c2ccccn2)CC1,10.7
15,Cc1c(NC(=O)/C(=C/c2cccs2)NC(=O)c2ccccc2)c(=O)n(-c2ccccc2)n1C,11
16,CCC(C)c1cc(S(=O)(=O)N2CCOCC2)ccc1OC (stereo not drawn),-1.67
17,COc1cc2[nH]c(=S)nc(NCCCOC(C)C)c2cc1OC,4.64
18,CSc1ccccc1NC(=O)Cn1nc([N+](=O)[O-])c(Cl)c1C,11.9
19,CC(C)n1c(O)c(N=NC(=O)CNC(=O)CCc2ccccc2)c2ccccc21,-1.31
20,Cc1ccccc1-c1noc(-c2ccccc2F)n1,-1.77
21,CCCc1nnc(NC(=O)c2cc3ccccc3o2)s1,20
22,Cc1ccc(S(=O)(=O)CCN2CCN(c3ccccc3)CC2)cc1,5.58

row,SMILES,"hERG current change (%, negative = inhibition) at 1uM [%]"
1,O=C(NCc1n[nH]c(=S)n1-c1ccccc1)c1ccc(S(=O)(=O)N2CCCCC2)cc1,3.47
2,COc1ccc(/C=N/NC(=O)c2cccc(Br)c2)cc1CSc1ccccn1,5.78
3,COc1cc(C(=O)NCc2nnc(SCC(=O)N3CCC(C)CC3)o2)cc(OC)c1OC,9.62
4,O=C(Nc1ccc2c(c1)OCO2)N1CCN(c2cccc(C(F)(F)F)c2)CC1,7.41
5,COC(=O)NNC(=O)Cc1cccc2ccccc12,15.1
6,Cc1nc2ccccc2n1C(=O)c1cc(-c2ccc(Br)cc2)nc2ccccc12,20.2
7,COc1ccc(CN2CCC(N(CCc3ccccc3)Cc3ccccc3)CC2)c(OC)c1.O=C(O)C(=O)O,-79.8
8,CCC(C)(C)c1ccc(OCCCC[n+]2cccc(C)c2C)c(C(C)(C)CC)c1.[Br-],-52.7
9,CCc1c(C)nc(N2CCN(c3ccc(Cl)cc3)CC2)[nH]c1=O,16.8
10,COc1ccc(C(=O)NCc2cccc(Cl)c2)cc1S(=O)(=O)N1CCOCC1,7.38
11,CCC(C)N(C(=O)COC(=O)C1CCN(S(=O)(=O)c2ccc(C)c(C)c2)CC1)C1CCS(=O)(=O)C1 (stereo not drawn),-10.6
12,O=C(COC(=O)c1cccc(S(=O)(=O)N2CCOCC2)c1)Nc1ncc(Cl)cc1Cl,5.26
13,C/C(=N\OCC(=O)Nc1ccc(OC(F)(F)F)cc1)c1ccc2c(c1)OCCO2,6.61
14,CCC(=O)N1CCc2cc(Br)cc(S(=O)(=O)CCC(=O)NCc3ccco3)c21,-3.2
15,O=C(Nc1ccc(F)cc1F)NC1CC(=O)N(Cc2ccccc2)C1 (stereo not drawn),11.7
16,CCC(CC)c1nnc(NC(=O)C2=NNC(=O)CC2)s1,3.23
17,Cc1ccccc1-c1nc(CN2CCC(C(=O)NCc3cccs3)CC2)c(C)o1,-47.9
18,CCc1ccccc1NC(=O)c1ccc(S(=O)(=O)NCC2CCCO2)cc1 (stereo not drawn),14
19,CC(=O)Nc1ccc(SC[C@H](C)CN2CC[C@H](O)CCC2=O)cc1,12.6
20,Cc1ccc(-n2c(Cn3c(C)nc4ccccc43)n[nH]c2=S)cc1,8.03
21,Cc1ccc(S(=O)(=O)CNC(=S)c2ccc3ccccc3c2)cc1,-10.8
22,COc1cc(NC(=O)CN2c3ccccc3CC2C)cc(OC)c1OC (stereo not drawn),11.2

row,SMILES,"hERG current change (%, negative = inhibition) at 1uM [%]"
1,CC(=O)c1cccc(NC(=O)CCS(=O)(=O)c2cccc3nonc23)c1,-3.92
2,Cc1[nH]c2ccccc2c1/C=N/NC(=O)c1cccs1,23.1
3,COc1ccc(-c2csc(NC(=O)CSc3n[nH]c(N)n3)n2)cc1,6.22
4,COc1ccc(O)c(C(=O)C2c3ccccc3C(=O)N2c2ccc(C)cc2)c1 (stereo not drawn),15.4
5,Cc1ccc(/C=C/C(=O)Nc2sc3c(c2C#N)CCCC3)o1,4.19
6,Cc1noc(C)c1COC(=O)c1ccccc1NC(=O)Cc1ccccc1,-2.78
7,CC(OC(=O)c1ccccc1O)C(=O)Nc1ccc(Cl)cn1 (stereo not drawn),3.23
8,COc1ccc(Cl)cc1NC(=O)CN(C)C(=O)c1cc(-c2cccs2)nn1-c1ccccc1,-3.49
9,Cn1c2c(c3ccccc31)CC/C2=N\O,0.871
10,O=S(=O)(/N=C(/Sc1ccccc1)c1ccccc1)c1ccccc1,13.1
11,NC(=O)C1CCCN(S(=O)(=O)c2ccccc2)C1 (stereo not drawn),15
12,COc1cc2c(cc1OC)C(c1cc3cc(C)ccc3[nH]c1=O)N(C(=O)c1ccco1)CC2 (stereo not drawn),9.04
13,O=C(COC(=O)Cn1nnc2ccccc21)NC1CCCC1,7.12
14,Cc1cccc(NC(=O)COc2ccc(Br)cc2)n1,10.5
15,Cc1ccc(C)c(N2CCN(C(=O)c3ccc(CS(=O)Cc4cccc(Cl)c4)o3)CC2)c1 (stereo not drawn),9.51
16,O=S(=O)(c1ccc(Cl)nc1)N1CCCc2ccccc21,3.99
17,COc1cc([N+](=O)[O-])ccc1NC(=O)NCc1ccco1,12.2
18,CC(C)CCC(O)(CCC(C)C)C(=O)NN1CCCCC1,0.115
19,CCCCN1CNC(=S)N(Cc2ccccc2)C1,1.1
20,CCN(CCCNC(=O)c1cn(CC)c2ccc(S(=O)(=O)N(C)C)cc2c1=O)c1cccc(C)c1,1.47
21,O=C(CSc1ccc2nnc(-c3ccccc3)n2n1)NCc1ccco1,-65.8
